Laboratory results: the RNAGym collection of RNA variant scans (doi:10.7554/elife.90254)
Read counts are not given, so values of variants with three or more changes are uncertain.

B1: LINE1-mini (parent)
chain: GGCAGAGCUCAACACAGCGUGGCAAAGUGGCUGUGGCUAGACUGCC

Variants of: B1
Experiment: self-cleavage, relative activity (ratio to wild type); higher = more cleavage; in vitro, sequencing; the parent is a self-cleaving ribozyme
For GGUAAAGCUCAACACAGGGUGGCAAAGUGGCUGUGGCUAGACUGAC, the self-cleavage was 0.02.
In the case of GGUAGAGAUCAACACAGCGUGUCAAAGUGGCUGUGGCUAGACUGCC, the self-cleavage is reported as 0.13.
GGUAGAGCUCAACACAGUGUGGCAAAGUGUCUGUGGCAAGACUGCC gave a self-cleavage of 0.1.
Work on GGUAUAGCUCAACAAAGCGUGGCAAAGUGGCUGUGGCUAGACUGCC yielded a self-cleavage of 0.06.
With GGUAGAGCUCAACACAACGUGACAAAGUGGCUGUGGCUAGACUGCC the self-cleavage was 0.09.
Variant GGUAAAGCUCAACACAGCGUGGCAAAGUGACUGUGGCUAUAUUGCC has a self-cleavage of 0.14.
Work on GGUAGAGCUUAACACAGCGUGGCCAAGUGGCUGUUGCUAGACUGCC yielded a self-cleavage of 0.11.
With GGUAGAGCUUAACACAGCGUGGCAAAGUGGCUGUGGCUAGAUUGCG the self-cleavage was 0.08.
GGUAGAGCUAAGGACAGCGUGGCAAAGUGGCUGUGGCUAGACUGCC gave a self-cleavage of 0.03.
GGUAGAGCUCAAUACAACGUGGCAAAGUGGCUGUGGCUAGACUGCC gave a self-cleavage of 0.08.
With GGUAGAACUCAACACAGCGUGGCAAAGUGGUUGUGGCUAGACUGCC the self-cleavage was 0.33.
Work on GGUACAGCUUAACACAGCGUGGCAAAGUGGCUGUGGCUUGACUGCC yielded a self-cleavage of 0.06.
With GGUAGACCUCAAAACAGCGUAGCAAAGUGGCUGUUGCUAGACUGCC the self-cleavage was 0.05.
GGUAGAGCUAGACACAGCGUGGCAAAGUGGGUGUGGCUAGACUGCC showed a self-cleavage of 0.01.
Variant GGUAGAGCUUAAUACAGCGUGGCAAAGUGGCUGUGGCUAGACUGCC has a self-cleavage of 0.08.
Variant GGUAGACCUCAACACAGUGUGGCAAAGUGACUGUGGCUAGACUGCC has a self-cleavage of 0.3.
GGUAUAGCGCAACACAACGUGGCAAAGUGGCUGUGGAUAGACUUCC gave a self-cleavage of 0.05.
For GGUAGAGCUCAACACAGUGUGGCACAGUGGCUGUGGCUAGACUGCC, the self-cleavage was 0.22.
Variant GGUAGAUCUCAACACAGCGGGGCAACGUGGCUGUGGCUAGACUGCC has a self-cleavage of 0.05.
GGUAGAGCUGAACACAGCGUGGCAAAGUGGCUGUGGAUAGACCGAC gave a self-cleavage of 0.01.
With GGUAGAGCUAAACACAGCGUGGCAAAGUGGCUGUGGCUAGCCUGCC the self-cleavage was 0.03.
GGUAGAGCUCAACACAGCGUGGUAAAGUGGCUGUGGCUAGCCUGCC gave a self-cleavage of 0.05.
GGUACAGCUCAACUCAGCGUGGCAAAGUGGCUAUGGCCAGACUGCC showed a self-cleavage of 0.05.
For GGUAGAGCUGAACACAGCUUGGCAAAGUGGUUGUGGCUACAUUGCC, the self-cleavage was 0.
GGUAGAGCUCAACACAGCGUGGCAAAGUGGAUGUGGCUAGAUUGGC gave a self-cleavage of 0.03.
Work on GGUAAAGCUCAACACAGGGUGGCAAAGUGGCUGUGGAUAGACUGCC yielded a self-cleavage of 0.05.
Work on GGUAGAGCUCAACACAGUGUGGCAAAGUGGUUGUGGCUAGACUGCC yielded a self-cleavage of 0.03.
Work on GGUAGAGCUCAACACACCGAAGCAAAGUGGCGGUAGCUAGACUGCG yielded a self-cleavage of 0.06.
For GGUAUAGCUCACCACAGCGGGACAAAGUGGCUGCGGCUAGACUGCC, the self-cleavage was 0.05.
Work on GGUAGAGCUCAACACAGCGUGGAAAAGUGGCUGUAGCUAGACUUCC yielded a self-cleavage of 0.05.
Work on GGUAGAGCUCAACACAUGGUGGCAAAGUGGCCGUGGCUAGACUGCC yielded a self-cleavage of 0.09.
Variant GGUACAGCUCAACACAGCGUGGCAAAGUGGCUGUGGCUUGACUGCC has a self-cleavage of 0.02.
For GGUAAAGCUCAACACAGCGUGGCAAAGUGGCUGUUGCUAGACUGCC, the self-cleavage was 0.28.
Variant GGUAGAGAUCAACACAGCGUGGCAAAGUGGCGGUGGCCAGACUGCC has a self-cleavage of 0.69.
GGUAGAGCUCAACACAGCGUGGCAAAGUGGCUGUGGGUAGACUGCG showed a self-cleavage of 0.09.
Variant GGUAGAGAUCAACACAGCGUGGCAAAGCGGCUGUGGCUAGACUGCC has a self-cleavage of 0.23.
With GGUAGAGCUCAACAAAGUGUGGCAAAGUGGCUGCGGCUAGACUGCC the self-cleavage was 0.05.
With GGUAAAGCUCAACACAGAUUGUCAAACUUGCUGUGGCUAGACAGCC the self-cleavage was 0.25.
Work on GGUAGAGCUCAAAACAGCGUGGCAAAGUGGCUGAGGCUAGACUGCC yielded a self-cleavage of 0.03.
Variant GGUAGAGCUCAACACAGUUUGGCAAAGUGGCUGUGGCUAGACUGCC has a self-cleavage of 0.15.
GGUAGAGCUCAACAUAGCGGGGCAAAGUGGCAGUUGCUAGACAGCA gave a self-cleavage of 0.01.
In the case of GGUAAAGGUCAACACAGCGUGGCAAAGUGGCUGUGGCUAGACUGCC, the self-cleavage is reported as 0.06.
GGUAGAGCUCAACAGAGCGCGGCAAAGUCGCUGUGGCUAGACUGCC gave a self-cleavage of 0.04.
In the case of GGUAGAACUCAACACAGCGUGGCAAAGUGGCUGGGGGUAGACUGCC, the self-cleavage is reported as 0.03.
Variant GGUAGACCUCAACACAGCGUGGCAAAGUGGUUGUGGCUAGACUCCC has a self-cleavage of 0.05.
GGUAGAGCUCAACACAAAGUGGCAAAGUGGCUGUGGCUAGACUGCC showed a self-cleavage of 0.07.
GGUAGAGCUCAACACAGCAUGGCAAAGUGGCUGUGGCAAGACUGGC gave a self-cleavage of 0.18.
With GGUAGAGCUAAACACAGCGUGGCAAAGUGGCUGUGGCUAGAGUGCC the self-cleavage was 0.01.
For GGUAGAGCUCAAGACAGCGUGGUAAAGUGGCUGUGGCUACAGUGCC, the self-cleavage was 0.02.
Work on GGUAGAGCUCAAGACAGCGUGGCAAAGUGGCUUUAGCUAGACUGCC yielded a self-cleavage of 0.06.
GGUAGAGCUCAACACAUCGUGGCAAAGUGGCUGUGGUUAGACUGCC gave a self-cleavage of 0.04.
Work on GGUAGAGCUCAAUACAGCGUGGCAAAGUGGCUGUGGCUAGAAUGCC yielded a self-cleavage of 0.08.
GGUAGAUCUCAGCACAGCGUGGUAAAGUGGCUGUGGCUAGACUGCC showed a self-cleavage of 0.03.
Variant GGUACAGCUCCACACAGCGUGGAAAAGUGGGUGUGGCUAGACUGCC has a self-cleavage of 0.01.
Work on GGUAGAGCUCAACACAGCGUGGCAAAGUGGGUGUGGCUAGACUGCA yielded a self-cleavage of 0.03.
GGUAGAGCUCAACAAGGCGUGGCAAAGUGGCUGUGGCUAGACUGCC gave a self-cleavage of 0.07.
